# In PubChem BioAssay AID588342 (National Center for Advancing Translational Sciences (NCATS), 2011):
# The whole screen tested about 360,000 compounds, of which about 25,000 (6.9%) were called active. The inconclusive results got no clear call from the source; some entries with a clear call stand among them for comparison. Calls follow the shape of the dose curve; as a rule, active = well fitted inhibition curve with a large enough effect; inconclusive = small, poorly fitted or top-dose-only effect; inactive = flat fitted curve, though single readings scatter. A potency beside an inconclusive call is a rough fit, not a confirmed value.
# Biological target: Luciferin 4-monooxygenase (Photinus pyralis) (UniProt P08659)
# UniProt P08659, sequence (P08659 whole entry, looked up): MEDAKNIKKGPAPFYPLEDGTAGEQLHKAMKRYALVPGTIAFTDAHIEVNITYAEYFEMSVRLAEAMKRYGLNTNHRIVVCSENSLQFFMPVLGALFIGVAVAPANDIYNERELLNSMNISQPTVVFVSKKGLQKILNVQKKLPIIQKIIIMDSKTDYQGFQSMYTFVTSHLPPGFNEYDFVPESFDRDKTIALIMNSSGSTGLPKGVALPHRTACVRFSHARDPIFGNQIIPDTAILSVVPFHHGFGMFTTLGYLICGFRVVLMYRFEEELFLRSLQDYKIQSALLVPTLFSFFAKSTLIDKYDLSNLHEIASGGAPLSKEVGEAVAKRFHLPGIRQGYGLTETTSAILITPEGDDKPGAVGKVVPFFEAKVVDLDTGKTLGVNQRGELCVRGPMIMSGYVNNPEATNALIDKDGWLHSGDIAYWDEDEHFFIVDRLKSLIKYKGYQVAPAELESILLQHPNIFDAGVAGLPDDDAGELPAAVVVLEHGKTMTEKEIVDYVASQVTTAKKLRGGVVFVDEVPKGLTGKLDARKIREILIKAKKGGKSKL
# Experiment: qHTS profiling assay for firefly luciferase inhibitor/activator using purifed enzyme and Km concentrations of substrates (counterscreen for miR-21 project); also: nearly all actives have a fitted effect of over 55% in size;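 as to activity change, negative = inhibition: plate controls were vehicle for no effect and reference inhibitor for full effect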
# Conditions: purified FLuc, luminescence inhibition; activity change, negative = inhibition: at 57.5 µM (top of the series)
# Procedure, shortened: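 Purified P. pyralis luciferase, 10 nM final, with Km-level 10 uM D-luciferin and 10 uM ATP in 50 mM Tris acetate pH 7.5, 10 mM Mg acetate, 0.01% Tween-20, 0.05% BSA; 6-point qHTS titration about 60 µM downward; luminescence read.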
# Potency is read from the fitted curve at half-maximal effect; tags tell the direction and shape of the fitted curve.
SMILES,Potency,"activity change, negative = inhibition"
Cc1ccc(C(=O)NCC(=O)OCC(=O)Nc2cccc(S(=O)(=O)N3CCCC3)c2)cc1C,active: 9.53 µM,–
Cn1nccc1C(=O)OCC(=O)Nc1nc(-c2ccccc2)cs1,"inconclusive: 26.9 µM [inhibitor, partial curve, poor fit]",–
CCCCC(=O)Nc1ccc2nc(SCC(=O)N3CCc4ccccc43)sc2c1,"inconclusive: 3.01 µM [inhibitor, partial curve, poor fit]",–
C=CCNC(=O)/C(=C\C=C\c1ccccc1)NC(=O)c1ccc(OCCCC)cc1,"inconclusive: 19 µM [inhibitor, single point]",–
CCc1ccc(-c2csc3nc[nH]c(=O)c23)cc1,"inconclusive: 23.9 µM [inhibitor, partial curve, poor fit]",–
COc1ccc(C(C#N)N2CCC(c3ccccc3)=N2)cc1 (stereo not given),"inconclusive: 19 µM [inhibitor, single point]",–
CCc1ccc(-n2c(=O)c3c4c(sc3n(Cc3ccccc3C#N)c2=O)CCCC4)cc1,–,inactive: 4.79%
Cc1ccc(S(=O)(=O)Nc2ccccc2C(=O)Nc2nc(-c3ccc(F)cc3)cs2)cc1,"inconclusive: 26.9 µM [inhibitor, partial curve, poor fit]",–
O=C(O)CCCCCn1c(SCC(=O)Nc2ccc(F)cc2)nc2ccsc2c1=O,"inconclusive: 23.9 µM [inhibitor, partial curve, poor fit]",–
N#C/C(=C(/O)CCl)c1nc(-c2ccccc2)cs1,"inconclusive: 23.9 µM [inhibitor, partial curve, poor fit]",–
Cc1ccc(SCC(=O)OCC(=O)N(CC(C)C)c2c(N)n(Cc3ccccc3)c(=O)[nH]c2=O)c(C)c1,–,inactive: 2.36%
Nc1ccccc1SC1CC(=O)N(c2ccc3c(c2)OCCO3)C1=O (stereo not given),"inconclusive: 9.53 µM [inhibitor, partial curve]",–
O=C(Nc1cccc(S(=O)(=O)N2CCCCC2)c1)c1ccc2c(=O)n3c(nc2c1)CCCCC3,"inconclusive: 19 µM [inhibitor, partial curve]",–
Brc1ccccc1-c1nnc(COc2ncnc3ccccc23)o1,"inconclusive: 37.9 µM [inhibitor, partial curve, poor fit]",–
O=C(Cn1ncc2c([nH]c3ccccc32)c1=O)NCCCN1CCN(c2ccc(F)cc2)CC1,–,inactive: 0.913%
Cc1nc(CS(=O)c2ccc(Cl)cc2)cc(N2CCOCC2)n1 (stereo not given),–,inactive: 1.22%
CCOC(=O)c1ccc(NCCOC)c([N+](=O)[O-])c1,"inconclusive: 26.9 µM [inhibitor, partial curve, poor fit]",–
O=C(Nc1ccc(CN2CCOCC2)cc1)c1ccc(Br)cc1,"inconclusive: 26.9 µM [inhibitor, partial curve, poor fit]",–
O=C(O)c1ccc(-c2nnn(Cc3cccc(C(F)(F)F)c3)n2)cc1,–,inactive: 2.22%
Fc1ccccc1C1CCN(Cc2nc(CC3CC3)no2)C1 (stereo not given),active: 16.9 µM,–
CCn1c(-c2cccnc2Cl)nc2cc(Cl)c(Cl)cc21,"inconclusive: 30.1 µM [inhibitor, single point]",–
COCCOC(=O)c1[nH]c2c(c1C)C(=O)CC(c1cccs1)C2 (stereo not given),–,inactive: 1.45%
CC(C)(C)C(=O)Nc1sc2c(c1C(=O)Nc1ccccn1)CCCC2,–,inactive: 1.89%

SMILES,Potency,"activity change, negative = inhibition"
Cc1nn(-c2ccccc2)c(N)c1N=Nc1cccc(S(=O)(=O)N2CCOCC2)c1,"inconclusive: 26.9 µM [inhibitor, partial curve, poor fit]",–
Cc1ccc(CNc2ccc3c(c2)ncn3C(C)C)cc1,active: 6.01 µM,–
Cc1cc(=O)oc2cc(NC(=O)c3cccc(S(C)(=O)=O)c3)ccc12,"inconclusive: 9.53 µM [inhibitor, partial curve, poor fit]",–
CC(=O)Oc1ccc(C23CC4CC(CC(C4)C2)C3)cc1C(=O)O,"inconclusive: 21.3 µM [inhibitor, partial curve, poor fit]",–
CNCC(O)CN1CCN(c2ccccc2OC)CC1 (stereo not given),–,inactive: -0.912%
Cc1noc(C)c1C(=O)OCC(=O)c1c[nH]c2ccccc12,"inconclusive: 37.9 µM [inhibitor, partial curve, poor fit]",–
Cc1cn2c(=O)cc(COC(=O)c3ccc(NC(=O)COc4ccccc4C)cc3)nc2s1,–,inactive: 3.87%
CCOC(=O)C1CCCN(CC(=O)Nc2c(C(=O)OC)[nH]c3ccc(Cl)cc23)C1 (stereo not given),–,inactive: 2.81%
CCC1(c2ccc(Cl)cc2)NC(=O)N(CC(=O)NCc2ccc(F)cc2)C1=O (stereo not given),–,inactive: 1.72%
Cc1ccc(N/N=C2\COC(C)(C)CC2=O)cc1,active: 7.57 µM,–
c1ccc(Nc2cc(Nc3ccccc3)[nH]n2)cc1,"inconclusive: 26.9 µM [inhibitor, partial curve]",–
CCCCNC(=O)c1nn(C)c2c1CSc1ccccc1-2,–,inactive: -1.62%
CCc1ccc(NC(=O)CN2C(=O)CSC2=O)cc1,active: 10.7 µM,–
O=C(CSCc1ccc(F)cc1)N1CCN(c2ccccc2F)CC1,"inconclusive: 19 µM [inhibitor, partial curve, poor fit]",–
O=C(c1cccc(F)c1)N1CCc2ccccc2C1,"inconclusive: 37.9 µM [inhibitor, partial curve, poor fit]",–
Cc1cc(C(=O)Nc2sc3c(c2C#N)CCC3)no1,active: 5.36 µM,–
COc1cccc(NC(=O)CSc2nc3ccccc3nc2N2CCCC2)c1,"inconclusive: 30.1 µM [inhibitor, partial curve, poor fit]",–
COc1ccc2nc3c(c(-c4ccccc4)c2c1)CCC3,"inconclusive: 23.9 µM [inhibitor, partial curve, poor fit]",–
O=C(N/N=C\c1ccccc1OCc1ccccc1)c1ccco1,active: 21.3 µM,–
CCCCN1CNC(=S)N(c2ccccc2OCC)C1,"inconclusive: 5.36 µM [inhibitor, partial curve, poor fit]",–
CCCSc1nnc(NC(=O)Nc2ccccc2OC)s1,"inconclusive: 7.57 µM [inhibitor, partial curve, poor fit]",–
COc1cccc(C(=O)NCC2OCCc3ccccc32)c1 (stereo not given),"inconclusive: 30.1 µM [inhibitor, partial curve]",–
